Data as given in PubChem BioAssay AID686971 (National Center for Advancing Translational Sciences (NCATS), 2013).
About 7,500 (2.1%) of roughly 360,000 compounds were called active. The inconclusive results got no clear call from the source; some entries with a clear call stand among them for comparison. The call rests on the fitted dose curve; in most records, active means well fitted cell-killing curve with a large enough effect; inconclusive means small, poorly fitted or top-dose-only effect, or effect the other way, or another doubt; inactive means no such curve, though single readings can be large or run the other way. Potencies of inconclusive entries are left out as doubtful fits.

Assay: qHTS for induction of synthetic lethality in tumor cells producing 2HG: qHTS for the HT-1080-IDH1KD cell line;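 on activity, negative = toxicity: 0% = DMSO wells and -100% = cell-free medium wells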
Conditions: HT-1080 IDH1 knockdown viability, ATP luminescence, 48 h; activity, negative = toxicity: at 46.1 µM (top of the series) unless noted
Procedure, shortened: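 Assay cells: HT-1080 with IDH1 knockdown, 750 per well, RPMI/5% FBS. Exposure: 48 h at 37 °C following 2 h pre-incubation. Read: CellTiter-Glo luminescence; fitted concentration-response, curve class assigned.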
Potency means the concentration at half of the fitted maximal effect; tags describe the fitted curve by direction and shape.

Structure (SMILES)	activity, negative = toxicity	Potency
CCOC(=O)C1=CN(Cc2ccco2)S(=O)(=O)NC1c1ccc(F)c(Cl)c1 (stereo not drawn)	inactive: -0.858%	
Cc1nc(C)c(C(=O)NNS(=O)(=O)c2ccc3ccccc3c2)s1		inconclusive [cytotoxic, partial curve]
CC(=O)Nc1ccc(NS(=O)(=O)c2cccc3ccccc23)cc1		inconclusive [cytotoxic, single point]
CC(NC(=O)CC1Sc2ccccc2NC1=O)c1ccccc1 (stereo not drawn)	inconclusive: 30.1%	
O=C1CC(/C=C/c2ccncc2)=Nc2ccccc2N1		inconclusive [cytotoxic, single point]
C=CCN(C(=O)CSc1nc2c(sc3ccccc32)c(=O)n1CCN(CC)CC)c1ccccc1		inconclusive [cytotoxic, single point]
COc1ccc(N2CCOCC2)c(NC(=O)c2cccs2)c1	inactive: -12.9%	
CC(=O)C1=CCC(c2ccccc2)N(S(=O)(=O)c2ccc(Cl)cc2)C1 (stereo not drawn)		inconclusive [cytotoxic, single point]
O=S(=O)(c1cc(Cl)ccc1Cl)n1ccnc1		inconclusive [rising, single point]
CCC(=Nc1ccc(N)cc1)C1=C(O)C(C(=O)OC)C(C)(C)CC1=O (stereo not drawn)	inactive: -24.2%	
COc1ccc(CN2C(=O)C(CC(C)C)Nc3ncnc(N4CCOCC4)c32)cc1 (stereo not drawn)	inactive: 1.34%	
c1ccc(C2Nc3ccccc3-c3nc4ccccc4n32)nc1 (stereo not drawn)		inconclusive [cytotoxic, single point]
CCc1nc(N2CCN(C(=O)c3ccccc3)CC2)c2c3c(sc2n1)CCCC3		inconclusive [cytotoxic, single point]
CC(C)N1CCC(N2CCN(Cc3ccc(-c4ccc(Cl)cc4)o3)CC2CCO)CC1 (stereo not drawn)		active: 20.6 µM
CCOc1cccc(/C=N/NC(=O)C2CCCC2)c1O		inconclusive [cytotoxic, partial curve]
CCOC(=O)N1CCN(C(=O)c2cnn3c(C(F)F)cc(-c4ccc(C)cc4)nc23)CC1	inactive: 3.56%	
CCCCCCCCCCCCN1[C@@H](CC(=O)O)c2cc(C(F)(F)F)ccc2S1(=O)=O	inactive: -11.2%	
CCC(C)NS(=O)(=O)c1ccc(NC(=O)C(Sc2ccccc2)c2ccccc2)cc1 (stereo not drawn)		inconclusive [cytotoxic, single point]
COc1ccc2nc(SCC(=O)NC3(C#N)CCCCC3)[nH]c2c1	inactive: -4.6%	
Cc1cccc(NC(=S)N(CCN(C)C)Cc2cc3cc(C)ccc3[nH]c2=O)c1		inconclusive [cytotoxic, single point]
Cc1cccc(C(=O)OCC(=O)Nc2c(C)n(C)n(-c3ccccc3)c2=O)c1O	inactive: 8.29%	
CC(C)(C)c1ccc(Nc2n[nH]c3ccccc23)cc1		inconclusive [cytotoxic, single point]
O=c1[nH]c(CN2CCN(S(=O)(=O)/C=C/c3ccccc3)CC2)nc2cc(Cl)ccc12		active: 20.6 µM
O=C(N/N=C/c1ccncc1)c1cccc(S(=O)(=O)Nc2ccc(Cl)cc2)c1		inconclusive [cytotoxic, single point]
CC(=O)N1CCC(C(=O)N2c3ccccc3N=C(c3ccc(C(F)(F)F)cc3)C2C(=O)NC(C)(C)C)CC1 (stereo not drawn)	inactive: -7.11%	

Structure (SMILES)	activity, negative = toxicity	Potency
COc1cccc(CNc2nc3cc(-c4cscc4C)sc3c(=O)n2C)c1		inconclusive [cytotoxic, partial curve, poor fit]
COC(=O)CSC1=NS(=O)(=O)c2ccccc21		inconclusive [cytotoxic, single point]
COc1ccc(CCNC(=S)N2CCC(C(=O)c3ccc(F)cc3)CC2)cc1OC		inconclusive [cytotoxic, single point]
Nc1nc(Sc2c([N+](=O)[O-])cc(C(F)(F)F)cc2[N+](=O)[O-])n[nH]1		inconclusive [cytotoxic, single point]
Cc1ccc(-c2cc(C(=O)N3CCOCC3)c3ccccc3n2)o1		inconclusive [cytotoxic, partial curve, poor fit]
NC(=O)COC(=O)c1ccccc1Nc1ccc(SC(F)F)cc1		inconclusive [cytotoxic, single point]
Cc1cc2nc3c(=O)n(C4CCCCC4)c(=O)[nH]c3nc2cc1N		inconclusive [cytotoxic, single point]
CC12CCCC[C@@H]1CCC1C2CCC2(C)C1CC[C@@]2(O)CNCCO (stereo partly drawn)		inconclusive [cytotoxic, single point]
COc1cc(CN2C[C@@H](CO)O[C@@H](n3cnc4c(NC5CCCC5)ncnc43)C2)cc(OC)c1OC	inactive: 7.64%	
CCSc1ccc(NC(=O)c2cccnc2)cc1		inconclusive [cytotoxic, single point]
CC(C)=CCC[C@H](C)CC1Cc2[nH]c(=S)[nH]c(=O)c2C(c2ccc(Cl)cc2)O1 (stereo partly drawn)		active: 16.4 µM
O=C1CCCc2cc3c(cc21)CC1(C3)Cc2cc3c(cc2C1)C(=O)CCC3		inconclusive [cytotoxic, single point]
O=S(=O)(c1ccccc1)c1nc(-c2ccccc2Cl)oc1NCCCN1CCOCC1	inactive: -33.4%	
Oc1cccc(-c2nc3c4c(ncn3n2)-c2ccccc2CC42CCCC2)c1		active: 11.2 µM
CC(=O)c1ccc(Nc2cc(C)nc3ccccc23)cc1		active: 11.6 µM
COc1ccc(NC(=O)CSc2nnnn2C2CC2)cc1S(=O)(=O)N1CCOCC1	inactive: 2.65%	
Cc1ccc(Sc2c(C)nn(C(=O)c3cccc(S(=O)(=O)N4CCOCC4)c3)c2C)cc1		inconclusive [cytotoxic, single point]
CC1(C(=O)O)CCCN1C(=O)c1ccc(Cl)cc1Cl (stereo not drawn)	inconclusive: 6.91%	
Cc1ccnc(NC(=O)CCC(=O)N(CC(=O)NC2CCCCC2)Cc2cccs2)c1	inactive: 20.1%	
C=CCC[C@@H](Cc1ccc(F)cc1)C(=O)OC[C@@H](NC(=O)[C@@H](CC=C)CC(=O)N[C@@H](CO)Cc1ccccc1)C(C)(C)C		inconclusive [cytotoxic, single point]
CC1=NN(c2nc(C)cc(C)n2)C(=O)C1CCC(C)C (stereo not drawn)		active: 10 µM
CCn1c(/C=C/Nc2ccccc2)[n+](CC)c2cc(Cl)c(Cl)cc21		inconclusive [cytotoxic, partial curve]
CN(CC(=O)Nc1ccc(F)cc1[N+](=O)[O-])C1CCS(=O)(=O)C1 (stereo not drawn)	inactive: 4.23%	
O=C(Nc1ccc(-n2nncc2-c2ccco2)cc1)c1cc2ccccc2oc1=O		inconclusive [cytotoxic, full curve]
COc1ccc(C2=NNC(=Nc3cc(S(=O)(=O)N(C)C)ccc3C)SC2)c(OC)c1		inconclusive [cytotoxic, single point]

Structure (SMILES)	activity, negative = toxicity	Potency
COC(=O)c1c(NC(=O)COC(=O)c2ccc(Cl)nc2)sc(C)c1C	inactive: -1.45%	
Cc1ccc(CNC(=O)C2(S(=O)(=O)c3ccccc3)CC=CC2)cc1	inactive: 1.51%	
Cc1cc(C)nc(NS(=O)(=O)c2ccc(NC(=O)CCCN3C(=O)c4ccccc4C3=O)cc2)n1	inactive: 12%	
CNC(=S)N1N=C(c2ccccc2)CC1c1ccccc1Cl (stereo not drawn)	inactive: 13.9%	
NS(=O)(=O)c1cccc(Nc2nc3ccccc3nc2NS(=O)(=O)c2ccc(Cl)cc2)c1		active: 20.6 µM
CC1CC(=O)N(CC(=O)NCc2ccc3c(c2)OCO3)c2ccccc2S1 (stereo not drawn)	inactive: -6%	
CCCCN(C)CCNC(=O)c1cc2cc3ccc(OC)cc3nc2o1	inactive: -0.681%	
N=c1c2c(-c3ccccc3)c(-c3ccccc3)n(Cc3ccccc3)c2ncn1CCCO		active: 5.62 µM
CC1(OC(=O)CCc2ccccc2)C(=O)C=C2C=C(c3ccc(C#N)cc3)N(Cc3ccccc3)C=C2C1=O (stereo not drawn)	inconclusive: -3.67% [cytotoxic]	
Cc1nc(SCc2cccc(Oc3ccccc3)c2)n[nH]1		inconclusive [cytotoxic, single point]
O=C(Nc1ncc([N+](=O)[O-])s1)c1ccc2c(c1)OCO2		active: 16.4 µM
COc1ccc(CCNC(=S)NC(=O)/C=C/c2ccc(C)cc2)cc1OC	inconclusive: -13.4% [cytotoxic]	
CN(C1CCCCC1)S(=O)(=O)c1cn(C)c(=O)n(C)c1=O	inactive: 11%	
COc1ccc(NC(=O)COC(=O)c2cc(=O)c3ccccc3o2)cc1OC	inactive: 6.8%	
Cc1cccc(NC2=NC3(CCCCC3)N=C(N)N2)c1		inconclusive [cytotoxic, partial curve]
OC(CNCC(c1ccc(Cl)cc1Cl)c1c[nH]c2ccccc12)c1ccccc1 (stereo not drawn)		active: 7.31 µM
Cc1ccc2cc(CN(CCCN3CCOCC3)C(=O)NC3CCCCC3)c(=O)[nH]c2c1C		inconclusive [cytotoxic, single point]
O=C(COC(=O)/C=C/c1ccccc1)Nc1nnc(-c2ccccc2)o1	inactive: 1.51%	
Cc1cccc2c(C(=O)N3CCN(C(=O)c4ccco4)CC3)cc(-c3cccc(Br)c3)nc12		active: 18.4 µM
O=C(CC1(O)C(=O)N(C/C=C/c2ccccc2)c2ccccc21)c1ccccn1 (stereo not drawn)		active: 10 µM
O=C(CCCOc1ccc(Br)cc1)Nc1ccc(S(=O)(=O)N2CCOCC2)cc1		inconclusive [cytotoxic, single point]
COc1cccc(/C=C(\C(=O)O)c2ccccc2)c1	inactive: 15.4%	
COc1ccc(OCC(=O)NNc2c3ccccc3nc3ccccc23)cc1		inconclusive [cytotoxic, single point]
